# The other results are listed elsewhere or left out.
# B1: DC-ASGPR Long (Homo sapiens) (protein)
# chain: MTRTYENFQYLENKVKVQGFKNGPLPLQSLLQRLRSGPCHLLLSLGLGLLLLVIICVVGFQNSKFQRDLVTLRTDFSNFTSNTVAEIQALTSQGSSLEETIASLKAEVEGFKQERQAGVSELQEHTTQKAHLGHCPHCPSVCVPVHSEMLLRVQQLVQDLKKLTCQVATLNNNASTEGTCCPVNWVEHQDSCYWFSHSGMSWAEAEKYCQLKNAHLVVINSREEQNFVQKYLGSAYTWMGLSDPEGAWKWVDGTDYATGFQNWKPGQPDDWQGHGLGGGEDCAHFHPDGGWNDDVCQRPYHWVCEAGLGQTSQESH
# How the values were obtained:
# Test in all cases: glycan array binding signal (z-score within array); higher = stronger binding
# Settings in all cases: glycan notation: IUPAC condensed, linker removed
# [1] = target: GlcNAc(b1-3)Gal(b1-4)GlcNAc(b1-2)Man(a1-3)[GlcNAc(b1-3)Gal(b1-4)GlcNAc(b1-2)Man(a1-6)]Man(b1-4)GlcNAc(b1-4)GlcNAc
# How it was run: (§1)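 Glycan array data were curated from 3228 arrays in the Consortium for Functional Glycomics database and kept only where the protein sequence was available. Glycan names were converted to IUPAC-condensed notation, and columns mapping to the same glycan were averaged. The binding signal is a within-array Z-score, averaged across arrays of the same protein sequence at different concentrations or buffers and across linkers. Negative Z-scores can be read as non-binding.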
# [2] = target: GlcNAc(b1-3)Gal(b1-4)GlcNAc(b1-2)Man(a1-3)[GlcNAc(b1-3)Gal(b1-4)GlcNAc(b1-2)Man(a1-6)]Man(b1-4)GlcNAc(b1-4)[Fuc(a1-6)]GlcNAc
# How it was run: as §1
# [3] = target: GlcNAc(b1-3)Gal(b1-4)GlcNAc(b1-2)[GlcNAc(b1-3)Gal(b1-4)GlcNAc(b1-6)]Man(a1-6)[GlcNAc(b1-3)Gal(b1-4)GlcNAc(b1-2)Man(a1-3)]Man(b1-4)GlcNAc(b1-4)GlcNAc
# How it was run: as §1
# [4] = target: GlcNAc(b1-3)Gal(b1-4)GlcNAc(b1-3)Gal(b1-4)GlcNAc
# How it was run: as §1
# [5] = target: GlcNAc(b1-3)Gal(b1-4)GlcNAc(b1-3)Gal(b1-4)GlcNAc(b1-2)Man(a1-3)[GlcNAc(b1-3)Gal(b1-4)GlcNAc(b1-3)Gal(b1-4)GlcNAc(b1-2)Man(a1-6)]Man(b1-4)GlcNAc(b1-4)GlcNAc
# How it was run: as §1
# [6] = target: GlcNAc(b1-3)Gal(b1-4)GlcNAc(b1-3)Gal(b1-4)GlcNAc(b1-2)Man(a1-3)[GlcNAc(b1-3)Gal(b1-4)GlcNAc(b1-3)Gal(b1-4)GlcNAc(b1-2)Man(a1-6)]Man(b1-4)GlcNAc(b1-4)[Fuc(a1-6)]GlcNAc
# How it was run: as §1
# [7] = target: GlcNAc(b1-3)Gal(b1-4)GlcNAc(b1-3)Gal(b1-4)GlcNAc(b1-2)[GlcNAc(b1-3)Gal(b1-4)GlcNAc(b1-3)Gal(b1-4)GlcNAc(b1-6)]Man(a1-6)[GlcNAc(b1-3)Gal(b1-4)GlcNAc(b1-3)Gal(b1-4)GlcNAc(b1-2)Man(a1-3)]Man(b1-4)GlcNAc(b1-4)[Fuc(a1-6)]GlcNAc
# How it was run: as §1
# [8] = target: GlcNAc(b1-3)Gal(b1-4)GlcNAc(b1-3)Gal(b1-4)GlcNAc(b1-3)Gal(b1-4)GlcNAc(b1-2)Man(a1-3)[GlcNAc(b1-3)Gal(b1-4)GlcNAc(b1-3)Gal(b1-4)GlcNAc(b1-3)Gal(b1-4)GlcNAc(b1-2)Man(a1-6)]Man(b1-4)GlcNAc(b1-4)GlcNAc
# How it was run: as §1
# [9] = target: GlcNAc(b1-3)Gal(b1-4)GlcNAc(b1-3)Gal(b1-4)GlcNAc(b1-3)Gal(b1-4)GlcNAc(b1-2)Man(a1-3)[GlcNAc(b1-3)Gal(b1-4)GlcNAc(b1-3)Gal(b1-4)GlcNAc(b1-3)Gal(b1-4)GlcNAc(b1-2)Man(a1-6)]Man(b1-4)GlcNAc(b1-4)[Fuc(a1-6)]GlcNAc
# How it was run: as §1
# [10] = target: GlcNAc(b1-3)Gal(b1-4)GlcNAc(b1-3)Gal(b1-4)GlcNAc(b1-3)Gal(b1-4)GlcNAc(b1-2)[GlcNAc(b1-3)Gal(b1-4)GlcNAc(b1-3)Gal(b1-4)GlcNAc(b1-3)Gal(b1-4)GlcNAc(b1-6)]Man(a1-6)[GlcNAc(b1-3)Gal(b1-4)GlcNAc(b1-3)Gal(b1-4)GlcNAc(b1-3)Gal(b1-4)GlcNAc(b1-2)Man(a1-3)]Man(b1-4)GlcNAc(b1-4)[Fuc(a1-6)]GlcNAc
# How it was run: as §1
# [11] = target: GlcNAc(b1-3)Gal(b1-4)GlcNAc(b1-3)Gal(b1-4)GlcNAc(b1-3)Gal(b1-4)GlcNAc(b1-3)Gal(b1-4)GlcNAc(b1-2)Man(a1-3)[GlcNAc(b1-3)Gal(b1-4)GlcNAc(b1-3)Gal(b1-4)GlcNAc(b1-3)Gal(b1-4)GlcNAc(b1-3)Gal(b1-4)GlcNAc(b1-2)Man(a1-6)]Man(b1-4)GlcNAc(b1-4)GlcNAc
# How it was run: as §1
# [12] = target: GlcNAc(b1-3)Gal(b1-4)GlcNAc(b1-3)Gal(b1-4)GlcNAc(b1-3)Gal(b1-4)GlcNAc(b1-3)Gal(b1-4)GlcNAc(b1-2)Man(a1-3)[GlcNAc(b1-3)Gal(b1-4)GlcNAc(b1-3)Gal(b1-4)GlcNAc(b1-3)Gal(b1-4)GlcNAc(b1-3)Gal(b1-4)GlcNAc(b1-2)Man(a1-6)]Man(b1-4)GlcNAc(b1-4)[Fuc(a1-6)]GlcNAc
# How it was run: as §1
# [13] = target: GlcNAc(b1-3)Gal(b1-4)GlcNAc(b1-3)Gal(b1-4)GlcNAc(b1-3)Gal(b1-4)GlcNAc(b1-3)Gal(b1-4)GlcNAc(b1-2)[GlcNAc(b1-3)Gal(b1-4)GlcNAc(b1-3)Gal(b1-4)GlcNAc(b1-3)Gal(b1-4)GlcNAc(b1-3)Gal(b1-4)GlcNAc(b1-6)]Man(a1-6)[GlcNAc(b1-3)Gal(b1-4)GlcNAc(b1-3)Gal(b1-4)GlcNAc(b1-3)Gal(b1-4)GlcNAc(b1-3)Gal(b1-4)GlcNAc(b1-2)Man(a1-3)]Man(b1-4)GlcNAc(b1-4)[Fuc(a1-6)]GlcNAc
# How it was run: as §1
# [14] = target: GlcNAc(b1-3)Gal(b1-4)GlcNAc(b1-3)Gal(b1-4)GlcNAc(b1-3)GalNAc
# How it was run: as §1
# [15] = target: GlcNAc(b1-3)Gal(b1-4)GlcNAc(b1-3)GalNAc
# How it was run: as §1
# [16] = target: GlcNAc(b1-3)Gal(b1-4)GlcNAc(b1-3)[GlcNAc(b1-3)Gal(b1-4)GlcNAc(b1-3)]GalNAc
# How it was run: as §1
# [17] = target: GlcNAc(b1-3)Gal(b1-4)GlcNAc(b1-6)[Gal(b1-3)]GalNAc
# How it was run: as §1
# [18] = target: GlcNAc(b1-3)Gal(b1-4)GlcNAc(b1-6)[GlcNAc(b1-3)Gal(b1-3)]GalNAc
# How it was run: as §1
# [19] = target: GlcNAc(b1-3)Gal(b1-4)GlcNAc(b1-6)[GlcNAc(b1-3)]Gal(b1-4)GlcNAc
# How it was run: as §1
binder,measurement,setting,value
B1,glycan array binding signal (z-score),[1],-0.382
same,glycan array binding signal (z-score),[2],-0.305
same,glycan array binding signal (z-score),[3],-0.057
same,glycan array binding signal (z-score),[4],-0.502
same,glycan array binding signal (z-score),[5],-0.06
same,glycan array binding signal (z-score),[6],-0.454
same,glycan array binding signal (z-score),[7],-0.092
same,glycan array binding signal (z-score),[8],-0.279
same,glycan array binding signal (z-score),[9],0.194
same,glycan array binding signal (z-score),[10],0.093
same,glycan array binding signal (z-score),[11],0.068
same,glycan array binding signal (z-score),[12],1.61
same,glycan array binding signal (z-score),[13],0.067
same,glycan array binding signal (z-score),[14],-0.236
same,glycan array binding signal (z-score),[15],-0.16
same,glycan array binding signal (z-score),[16],-0.316
same,glycan array binding signal (z-score),[17],0.213
same,glycan array binding signal (z-score),[18],-0.22
same,glycan array binding signal (z-score),[19],-0.245
